Assay results as given in PubChem BioAssay AID686978 (National Center for Advancing Translational Sciences (NCATS), 2013).
Several values for one entry are separate records, joined by “and”; a condition that tells them apart may be missing. Equal entries are not always repeated. About 64,000 (15%) of roughly 420,000 compounds were called active. Inconclusive means that the source gave no clear call. Such entries were picked first, then a sample of the others. Calls follow the shape of the dose curve; as a rule, active = well fitted inhibition curve with a large enough effect; inconclusive = small, poorly fitted or top-dose-only effect; inactive = flat fitted curve, though single readings scatter. Potencies beside an inconclusive call are fits to weak or partial responses and may not hold up.

experiment: qHTS for Inhibitors of human tyrosyl-DNA phosphodiesterase 1 (TDP1): qHTS in cells in absence of CPT; conditions: DT40 Tdp1-/- hTDP1 cells, no CPT, ATP luminescence, 48 h; activity change, negative = growth inhibition: at 46.2 µM (top of the series) unless noted; also: nearly all actives have a fitted effect of over 55% in size
Outline: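 Readout: luminescence from CellTiter-Glo after 30 min in the dark at RT. Cells: DT40 Tdp1-/- with stable hTDP1, 400/well. Exposure: compounds alone, ≥48 hr, 37 °C.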
% is scaled to controls: 0 for no effect and ±100 for the full control effect; potency is read from the fitted curve at half-maximal effect; tags tell the direction and shape of the fitted curve.

Structure (SMILES) | Potency | activity change, negative = growth inhibition
O=C(CCS(=O)(=O)c1cccs1)Nc1ccc(C(=O)Nc2cccc(Cl)c2)cc1 | inconclusive: 23.1 µM [inhibitor, single point] | –
COc1ccc(NC(=O)[C@@H]2CC=C[C@@H]3CCN(Cc4ccc(Cl)c(Cl)c4)C(=O)[C@@H]32)cc1 | inconclusive: 22.4 µM [inhibitor, single point] and inconclusive: 29.1 µM [inhibitor, single point] | –
CC(C)Oc1ccc(/C(O)=C2/C(=O)C(=O)N(CCN3CCNCC3)C2c2cccc([N+](=O)[O-])c2)cc1 (stereo not drawn) | inactive | –
COc1ccc(N2CC(c3nc(-c4cc(OC)c(OC)c(OC)c4)no3)CC2=O)cc1Cl (stereo not drawn) | active: 16.4 µM | –
CCOC(=O)c1ccc(NC(=O)CCc2ccc(C)o2)cc1 | – | inconclusive: -30.2% [inhibitor]
O=C(Nc1nnc(Cc2ccc(Cl)cc2)s1)C1CCN(C(=O)c2ccco2)CC1 | inconclusive: 35.5 µM [inhibitor, single point] | –
Cc1ccc2c(Cl)cc(Cl)c(OCC(=O)O)c2n1 | inactive | –
CCC(=O)N1CCCc2cc(S(=O)(=O)N3CCC(C(=O)Nc4ccc(F)c(F)c4)CC3)ccc21 | active: 11.6 µM | –
Cc1cc(C)c2c(c1)cc(C)c1nnc(SCC(=O)Nc3ccc(S(=O)(=O)N4CCCCC4)cc3)n12 | active: 20.6 µM | –
CC1CC(=O)c2cc(-c3ccccc3)oc2C1 (stereo not drawn) | inconclusive: 20.6 µM [inhibitor, partial curve] | –
CCn1c(N)[n+](CC(=O)Nc2ccc(SC(F)F)cc2)c2ccccc21 | active: 13 µM | –
Cc1cc2oc(=O)cc(CN3CCCCC3C)c2cc1C (stereo not drawn) | inconclusive: 29.1 µM [inhibitor, single point] | –
Cc1cc(C)c2c(=O)c3c(oc2c1)C(=O)N(Cc1ccc(F)cc1)C3c1cccc(O)c1 (stereo not drawn) | active: 11.6 µM | –
O=C1Nc2ccccc2-n2nnnc2C1N1CCN(c2ccccn2)CC1 (stereo not drawn) | inactive | –
COc1ccc(NC(=O)c2onc(C)c2Cl)cc1 | inconclusive: 6.51 µM [inhibitor, single point] | –
CCN(CC(=O)Nc1ccccc1OC)C(=O)CN1C(=O)NC(C)(c2ccc3ccccc3c2)C1=O (stereo not drawn) | inconclusive: 29.1 µM [inhibitor, single point] | –
COc1cccc(C(=O)/C=C/c2ccc(N3CCCCC3)c([N+](=O)[O-])c2)c1 | inconclusive: 23.1 µM [inhibitor, single point] | –
CC(C)(C)c1ccc(C(=O)COC(=O)CN2C(=O)NC3(CCCC3)C2=O)cc1 | inactive | –
CCOc1ccc(CONS(=O)(=O)c2ccc(NC(C)=O)cc2)cc1Cl | active: 9.2 µM | –
CC(=O)NC(Cc1c[nH]c2ccccc12)C(=O)Nc1ccc2c(c1)OCO2 (stereo not drawn) | inactive | –
CCCCCn1c(SCc2ccncc2)nc2cc(C(=O)NCc3ccco3)ccc2c1=O | inconclusive: 25.9 µM [inhibitor, single point] | –
NC(=O)CC(NC(=O)Cc1cccc2ccccc12)c1ccc(N2CCN(c3ccc(F)cc3)CC2)c([N+](=O)[O-])c1 (stereo not drawn) | inconclusive: 29.1 µM [inhibitor, single point] | –

Structure (SMILES) | Potency | activity change, negative = growth inhibition
CCN(CC)S(=O)(=O)c1ccc(N/N=C/c2ccc(OC)c(OC)c2OC)nc1 | active: 18.4 µM | –
CCOC(=O)C1=C[C@@H](C(C)C)N(S(=O)(=O)c2ccc([N+](=O)[O-])cc2)[C@H]1c1ccccc1 | inconclusive: 20.6 µM [inhibitor, single point] | –
CCCCNC(=S)N/N=C1\CCCCc2ccccc21 | inconclusive: 29.1 µM [inhibitor, single point] | –
COc1ccccc1/C=C/C(=O)Nc1cccc(C(C)=O)c1 | inconclusive: 20.6 µM [inhibitor, single point] | –
O=C(O)CN1C(=O)/C(=C\c2cccc(OCc3ccccc3)c2)SC1=S | inactive | –
CCc1[nH]nc(C(=O)N2CCCC(C(=O)c3cccc(OC(C)C)c3)C2)c1C (stereo not drawn) | active: 16.4 µM | –
CC(C)N(C)c1ncnc2c1ncn2[C@H]1CN(Cc2ccc(F)cc2)C[C@@H](CO)O1 | inconclusive: 29.1 µM [inhibitor, single point] | –
COc1ccc(C2SCC(=O)N2c2nc3ccccc3s2)cc1 (stereo not drawn) | inconclusive: 14.6 µM [inhibitor, single point] | –
Cc1ccc2nc(N(CCCN(C)C)C(=O)c3sc4ccccc4c3Cl)sc2c1 | active: 25.9 µM | –
COc1ccccc1NC(=O)N(C1CCCC1)C1CCN(C(C)=O)CC1 | inconclusive: 23.1 µM [inhibitor, single point] | –
CC1CCN(CCOc2ccc(OCc3ccccc3)cc2)CC1 | inconclusive: 29.1 µM [inhibitor, single point] | –
Cc1nnc2ccc(-c3cccc(NC(=O)Cc4cccs4)c3)nn12 | inconclusive: 20.6 µM [inhibitor, single point] | –
CN(C)/C=C/C(=O)c1cc(F)cc(C(F)(F)F)c1 | inactive | –
C=CCN1CC2(c3ccccc3)CN(CC=C)CC(c3ccccc3)(C1)C2=O | inconclusive: 29.1 µM [inhibitor, single point] | –
COCCn1c(NC(=S)NC(=O)C23CC4CC(CC(C4)C2)C3)cc(=O)[nH]c1=O | inconclusive: 29.1 µM [inhibitor, single point] | –
C#CCOCCOCCOCCNc1nc(N2CCN(C(=O)CCCCCCCCCCNC(=O)[C@@H](CCC(=O)O)n3cc(CCCCCN)nn3)CC2)nc(N2CCN(C(=O)CCCCCCCCCCNC(=O)[C@H]([C@@H](C)CC)n3cc(CCCCCN)nn3)CC2)n1 | inconclusive: 23.1 µM [inhibitor, single point] | –
COc1ccc(-c2[nH]ncc2CN(CCO)CC23CC4CC(CC(C4)C2)C3)c(OC)c1 | inconclusive: 14.6 µM [inhibitor, partial curve] | –
CC(C)(C)CC(=O)Nc1nnc2n1CCS2 | inactive | –
CCc1ccc(OC(=O)Cc2ccc(OC)c(S(=O)(=O)N3CCOCC3)c2)cc1 | inactive | –
COc1cc(C(O)c2nc(-c3csc4ccccc34)cs2)ccc1F (stereo not drawn) | active: 18.4 µM | –
COc1ccccc1N1CCN(C(=O)/C=C/c2ccccc2)CC1 | active: 16.4 µM | –
